Reference: paper PMC6919601, “Identification of Plasmodium dipeptidyl aminopeptidase allosteric inhibitors by high throughput screening” (PLoS ONE, 2019)
In all, about 110,000 compounds went through this assay and about 230 (0.21%) showed an effect of 50% or more. The list shows a part of the results.

The compounds below were run against DPAP1 (Plasmodium falciparum, UniProt Q8IIJ9) (assay: primary screen, percent inhibition; read by cleavage of a fluorogenic dipeptide substrate; higher = more effect of the substance).
Design: species or system P. falciparum D10 trophozoite lysates; single well
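Note: 30 min substrate incubation versus DMSO and 10 µM JCP410 controls.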

DPAP1, sequence (Q8IIJ9 whole entry, looked up): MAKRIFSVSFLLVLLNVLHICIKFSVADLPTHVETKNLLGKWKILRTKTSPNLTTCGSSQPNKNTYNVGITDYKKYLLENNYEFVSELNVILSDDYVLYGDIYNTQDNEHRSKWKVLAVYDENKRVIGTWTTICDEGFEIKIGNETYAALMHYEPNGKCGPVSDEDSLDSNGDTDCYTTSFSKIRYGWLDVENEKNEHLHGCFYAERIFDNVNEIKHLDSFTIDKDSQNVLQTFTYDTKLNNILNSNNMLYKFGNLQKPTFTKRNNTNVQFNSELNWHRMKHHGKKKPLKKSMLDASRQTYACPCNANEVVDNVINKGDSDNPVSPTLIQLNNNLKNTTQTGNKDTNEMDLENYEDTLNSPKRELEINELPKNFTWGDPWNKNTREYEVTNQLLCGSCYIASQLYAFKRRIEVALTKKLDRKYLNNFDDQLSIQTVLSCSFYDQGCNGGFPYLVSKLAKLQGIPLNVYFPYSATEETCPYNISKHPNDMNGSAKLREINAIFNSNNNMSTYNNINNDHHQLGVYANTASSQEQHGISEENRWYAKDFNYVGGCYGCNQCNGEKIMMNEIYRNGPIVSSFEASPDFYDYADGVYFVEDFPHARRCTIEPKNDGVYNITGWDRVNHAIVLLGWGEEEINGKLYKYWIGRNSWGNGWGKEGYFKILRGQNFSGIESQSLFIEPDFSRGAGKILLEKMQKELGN

| SMILES | % Inhibition @ 10 uM [%] |
| --- | --- |
| O=C(c1cc2cc(Br)ccc2oc1=O)N1CCCCCC1 | 1.08 |
| Cc1ccc2c(CNCc3ccc(C)o3)c(C(=O)O)n(Cc3cccc(F)c3)c2c1 | 3.47 |
| CCOC(=O)c1sc(N)c(C(=O)OC)c1C | 4.26 |
| COc1ccc(NC(=O)c2ccc(C(C)(C)C)cc2)cc1OC | -2.67 |
| NC(=O)CC(c1ccccc1)c1ccco1 (stereo not shown) | 3.17 |
| CCc1cc(OC)c(OC)cc1C(C)NC(=O)c1ccccc1 (stereo not shown) | -1.63 |
| COc1cc(C2C(C(=O)c3ccc(F)cc3)=C(O)C(=O)N2CCCCCC(=O)O)ccc1O (stereo not shown) | -3.75 |
| COc1ccc(-c2c(C)nn3c(O)cc(Cc4ccccc4)nc23)cc1 | 6.66 |
| Fc1ccc(Oc2cc(-n3cncn3)nc(-c3ccccc3)n2)cc1 | -3.71 |
| Cc1cc(C)cc(-n2cnc3cc(C(=O)NCc4cccnc4)ccc32)c1 | -7.57 |
| O=C(Nc1ccc(Cl)cc1)Nc1cc(C(F)(F)F)ccc1Cl | 7.35 |
| C=CCOc1ccc(C2N3CC4(C)CN2CC(C)(C3)C4)cc1 (stereo not shown) | -0.0735 |
| C=CCOc1c(Cl)cc(CNc2nccs2)cc1OC | 1.84 |
| COc1ccccc1N1C(=O)C2C3CCC(C3)C2C1=O (stereo not shown) | -5.96 |
| CC(C)c1ccc(/C=C(\C#N)C(=O)NCc2cccnc2)cc1 | 10.8 |
| CCn1c(=O)/c(=C2/Sc3ccccc3N2C)s/c1=C1/C(=O)N(c2ccccc2)N=C1C | 2.08 |
| CC1CN(Cc2ccccc2Br)CC(C)O1 (stereo not shown) | 2.41 |
| O=C(c1ccc(F)cc1)N1CCN(Cc2ccccc2F)CC1 | -11.5 |
| CC1CCN(S(=O)(=O)c2ccc(NC(=O)c3ccccc3)cc2)CC1 | -2.66 |
| CCc1sc(C2C(C#N)=C(N)Oc3[nH]nc(C)c32)cc1COc1ccccc1Cl (stereo not shown) | 3.05 |
| Sc1nnc(-c2ccccc2)n1-c1ccccc1 | 2.49 |
| Cc1ccc2occ(/C=C/C(=O)O)c(=O)c2c1 | -2.37 |
| O=C(NCC1CCCO1)c1cc(-c2ccccc2F)no1 (stereo not shown) | -4.49 |
| O=C(CSC1CC(=O)N(c2cccc(Br)c2)C1=O)Nc1ccc(Cl)cc1 (stereo not shown) | 14.2 |
| CCN(CC)CCN1C(=O)C(O)=C(C(=O)c2ccc(F)cc2)C1c1cccs1 (stereo not shown) | -9.12 |
| Cc1cc(NC(=O)Cn2ncc3c4ccccc4nc-3c2O)no1 | 1.9 |

| SMILES | % Inhibition @ 10 uM [%] |
| --- | --- |
| CCC(=O)c1cn(CC(=O)N2CCCC2)c2ccccc12 | -5 |
| C=CCSc1nnc(-c2ccc(Br)cc2)o1 | 4.35 |
| CCOc1ccc(Sc2cc(C(=O)N3CCCC3)c3ccccc3n2)cc1 | 1.62 |
| COc1cc(C(=O)/N=c2\sc(C)c(-c3ccc(C)cc3)n2C)cc(OC)c1OC | -6.05 |
| O=C(Nc1ccccc1)c1nc2ccccc2s1 | 5.39 |
| Cn1c(=O)[nH]c(=O)c2c1nc1n2CCS1 | 5.54 |
| O=C(NC(Cc1ccccc1)C(=O)NCc1ccccn1)c1ccccc1 (stereo not shown) | -0.173 |
| Cc1sc(NC(=O)COc2ccc(C(C)(C)C)cc2)c(C(N)=O)c1C | -4.54 |
| CC(C)CCNC(=O)Cn1c2c(c(-c3ccccc3Cl)cc1=O)CCC2 | 5.47 |
| CCN(CC)CCNC(=O)/C(=C/c1cn(CC)c2ccccc12)NC(=O)c1ccc(C)cc1 | -0.0235 |
| CCC(C(=O)NC1CCCC1)n1c(SCc2ccc(F)cc2)nc2ccncc21 (stereo not shown) | 5.73 |
| Cc1ccc2c(CNCc3ccc(C)o3)c(C(=O)O)[nH]c2c1 | -4.46 |
| Cn1c(=N)n(CC(=O)c2ccc(Cl)cc2)c2ccccc21 | -6.65 |
| COc1ccccc1Nc1[nH]nc(C)c1[N+](=O)[O-] | 6.43 |
| Cc1ccc(CNC(=O)Cn2ncc3ccsc3c2=O)cc1 | -6.52 |
| COc1cccc(C(=O)C2=C(O)C(=O)N(CCCn3ccnc3)C2c2cccs2)c1 (stereo not shown) | -1.44 |
| O=c1cccc2n1C[C@H]1C[C@@H]2CN(Cc2ccccc2O)C1 | -4.55 |
| CCOc1ccc(NC(=O)CNS(=O)(=O)c2ccccc2)cc1 | 2.6 |
| COc1ccc(C(=O)Nc2nc(C)c3cc4c(cc3n2)OCO4)cc1 | -4.42 |
| Cc1c(C(=O)O)nn(-c2cccc(C(F)(F)F)c2)c(=O)c1C#N | 2.69 |
| O=C1NC(c2ccc(Br)cc2)=N/C1=C/c1ccccc1F | -0.591 |
| O=C(NCc1ccc2c(c1)OCO2)C1=Cc2sc3c(c2CS1)CCCC3 | -1.08 |
| C/C(=N\N=C(/C)c1cccnc1)c1cccnc1 | -5.6 |
| Cc1cc(O)c(C2=Nc3ccccc3SC(c3ccccn3)C2)c(=O)o1 (stereo not shown) | -3.62 |
| COc1ccc2c(CNC3CCC(C)CC3)c(C(=O)O)n(Cc3ccccc3F)c2c1 (stereo not shown) | -1.97 |
| CCOC(=O)c1cc(C)n(CC2CCC(C(=O)Nc3ccc(C)cn3)CC2)c1C (stereo not shown) | -0.416 |
